Structures are written as SMILES. About 540 (0.36%) of roughly 150,000 compounds showed an effect of 50% or more. Some of the results follow.

The test system of the assay is Plasmodium falciparum. As to the kind of experiment: Primary screen in NF54 nanoGlo assay, in single point, at 2uM, 72h; a lower Z score goes with more inhibition. The class given is functional, Erythrocyte. As to conditions: timepoint 72 hour.
Consider `CNC(=O)CCn1ncc(N(C)Cc2ccccc2)cc1=O`, for which the % Inhibition (usually the drop in the measured response relative to a control, in per cent) is given as -4% and the Z score was 0.43.

Turning to `COCCCN1C(=O)CC[C@@H]2CN(c3ncnc4[nH]ccc34)CC[C@@H]21`, the “% Inhibition” value worked out at 2% and the Z score is reported as -0.29.

In the case of `CC1CN(c2ccncc2Cl)CC1N1CCOCC1` (stereo unspecified), the “% Inhibition” value is recorded as -7% and the Z score is given as 0.86.

With `C[C@@H](CNC(=O)NCCc1cn2c(n1)CCCC2)Oc1ccccc1`, the “% Inhibition” value is reported as -7% and the Z score is 0.83.

Take `Cc1nccn1CCNC(=O)c1cc2cccc(Cl)c2n1C`: the “% Inhibition” value is recorded as -16% and the Z score was found to be 1.43.

In the case of `CCCn1nccc1S(=O)(=O)NC[C@H]1CCN(CCOC)C1`, the “% Inhibition” value was -29% and the Z score is listed as 2.57.

Regarding `O=C1C[C@H](c2noc(-c3cccc4c3OCCO4)n2)CN1CC1CCC1`, the “% Inhibition” value is recorded as 3% and the Z score is -0.62.

As for `CCCCc1noc(Cn2cc([C@H](O)c3ccccc3)cn2)n1`, the “% Inhibition” value is reported as -5% and the Z score stood at 1.06.

Regarding `CC1(C)[C@@H](O)CCN1C(=O)c1cncc(O)c1`, the “% Inhibition” value is -2% and the Z score came out at 0.29.

Regarding `O=C1C[C@@H](C(=O)Nc2ccc(Cl)cc2)Oc2ccc(F)cc21`, the “% Inhibition” value was 34% and the Z score is -3.89.

For `O=C(NC[C@H]1CCCN(C(=O)c2cccnc2O)C1)c1cscn1`, the “% Inhibition” value is given as -8% and the Z score came out at 1.41.

For the molecule `COc1cccc(CCn2ccnc2-c2nc(C)cs2)c1`, the “% Inhibition” value stood at 3% and the Z score was -0.39.

Take `Cn1nccc1COCC(=O)N1CCC[C@H]1Cn1cc(C2CC2)nn1`: the “% Inhibition” value is given as -2% and the Z score was determined as 0.29.

For `COCCNC(=O)[C@H]1CCCN(c2cnc3nccnc3c2)C1`, the “% Inhibition” value is given as -5% and the Z score worked out at 0.87.

Regarding `CN1C(=O)CC(C(=O)Nc2ccncc2)C1c1ccc2c(c1)OCO2` (stereo unspecified), the “% Inhibition” value was -12% and the Z score is listed as 1.23.

`CC1CCC(NC(=O)C2(C)Cn3c(nc4ccccc43)C(=O)N2CC2CCCO2)CC1` (stereo unspecified): the “% Inhibition” value is -5% and the Z score worked out at 0.5.

Take `O=C1NC(=O)C2(CCN(C(=O)C3CC3C3CCCCC3)C2)N1` (stereo unspecified): the “% Inhibition” value is listed as -4% and the Z score was 0.78.

In the case of `Cc1ccc(-c2noc(C3CC4C=CC3C4)n2)cn1` (stereo unspecified), the “% Inhibition” value is -12% and the Z score amounted to 2.12.

Regarding `FC(F)(F)c1ccnc(N[C@H]2CCCN(CCN3CCOCC3)C2)c1`, the “% Inhibition” value was -3% and the Z score was 0.49.

On to `COc1ccc2c(c1)CCC[C@@]2(O)CNS(=O)(=O)c1cccnc1`, for which the “% Inhibition” value is -20% and the Z score is 2.62.

Turning to `C=CCNS(=O)(=O)c1ccc(C)c(C)c1`, the “% Inhibition” value is given as -13% and the Z score came to 1.76.

Regarding `Cc1n[nH]c([C@@H]2CN(C(=O)C3CCCC3)CCCN2Cc2ccccc2)n1`, the “% Inhibition” value was -10% and the Z score was found to be 1.87.

For the molecule `C#CC(CCC)NC(=O)N1CC(C)OC(C)(C)C1` (stereo unspecified), the “% Inhibition” value is recorded as 2% and the Z score is on record as -0.27.

Regarding `COc1ccc(N(Cc2cc(CN3CCOCC3)cs2)S(=O)(=O)c2cc(F)ccc2C)cc1`, the “% Inhibition” value is listed as -9% and the Z score is recorded as 1.15.

Turning to `Cc1cc(=O)c(OCC(=O)Nc2nccs2)cn1C`, the “% Inhibition” value is -1% and the Z score turned out to be 0.09.

For `C[C@@H]1CN(C[C@@H]2CN(C(=O)c3ccc4[nH]nnc4c3)C[C@@H]2CO)C[C@H](C)O1`, the “% Inhibition” value is -1% and the Z score was 0.21.

Take `CCC1CCN(c2ccc(C(=O)N(C)C)nn2)CC1`: the “% Inhibition” value is reported as -3% and the Z score came to 0.48.

`CC(C)(C)[C@H](NC(=O)c1nccnc1N)C(F)(F)F`: the “% Inhibition” value is -3% and the Z score is reported as 0.31.

As to `Cc1ccc(-c2nnc([C@H](C)Nc3ccc4c(c3)OCO4)o2)cc1`, the “% Inhibition” value is recorded as -12% and the Z score came out at 1.65.

As to `Cc1ccc(S(=O)(=O)NCCNc2nc(C3CC3)nc3c2c(C)nn3-c2ccccc2)cc1`, the “% Inhibition” value turned out to be 0% and the Z score came to 0.05.

For the molecule `c1c[nH]c(-c2nccn2-c2ccc3ncsc3c2)n1`, the “% Inhibition” value is given as -1% and the Z score turned out to be 0.1.

As for `Cc1ccccc1CC(=O)n1nc(C)c(Cl)c1C`, the “% Inhibition” value is on record as -1% and the Z score was 0.15.

As to `CC(C)(C)OC(=O)N1CCN(c2cccnc2)C(=O)C1`, the “% Inhibition” value is -18% and the Z score is on record as 2.12.

In the case of `CC(C)c1cc(CNC(=O)Cc2cccnc2)no1`, the “% Inhibition” value is -4% and the Z score is on record as 0.59.

On to `Cc1cc(C)cc(S(=O)(=O)NCc2nc3cccnc3n2C2CCCC2)c1`, for which the “% Inhibition” value stood at 4% and the Z score is reported as -0.68.

For `O=C(O)CCC1CCCN(C2CCN(c3ccccc3Cl)C2=O)C1` (stereo unspecified), the “% Inhibition” value is given as 0% and the Z score was 0.02.

Consider `COC[C@H]1CCCN1C(=O)c1cc(-c2ccco2)nc2c(Cl)cccc12`, for which the “% Inhibition” value was -18% and the Z score was determined as 1.89.

For `CS(=O)(=O)N1C2CCC(C2)C1C(=O)Nc1nccs1` (stereo unspecified), the “% Inhibition” value is recorded as -8% and the Z score was determined as 1.27.

As to `CCN(CCS(C)(=O)=O)[C@@H](C)c1nnc(-c2ccc(C)cc2)o1`, the “% Inhibition” value is reported as -10% and the Z score is 1.02.

In the case of `Cc1cc2c(cc1-c1ccnc(N3CCN(c4ccccc4)CC3)n1)[C@@H](C)CC(C)(C)N2`, the “% Inhibition” value is on record as 23% and the Z score is -3.06.

Turning to `c1cc(CN2CCC[C@H](CN3CCCC3)C2)co1`, the “% Inhibition” value was -3% and the Z score was 0.59.

For `Cc1cnn(CCC(=O)N[C@@H](C)Cc2ncccc2C)c1`, the “% Inhibition” value is given as -11% and the Z score is reported as 1.1.

For `Cc1cccc(NC(=O)Cn2nc(COc3ccccc3)oc2=S)c1`, the “% Inhibition” value is recorded as -40% and the Z score was found to be 4.68.

The values are drawn from ChEMBL document CHEMBL4888484, “Replenishing the malaria drug discovery pipeline: Screening and hit evaluation of the MMV Hit Generation Library 1 (HGL1) against asexual blood stage Plasmodium falciparum ,using a nano luciferase reporter read-out” (2022).
